Screen size: about 150,000 compounds; about 540 (0.36%) showed an effect of 50% or more. This is one part of the list.
tested on: Plasmodium falciparum; assay: Primary screen in NF54 nanoGlo assay, in single point, at 2uM, 72h; a lower Z score goes with more inhibition; type: functional, Erythrocyte; conditions: timepoint 72 hour

SMILES | % Inhibition | Z score
Cc1nc(CC(=O)NC2(c3nnc(N)s3)CCCCC2)cs1 | -4% | 0.67
CCn1ncc(C2=NO[C@H](C(=O)N3CCC(C(N)=O)CC3)C2)c1C | -12% | 1.7
CC(C)(CNC(=O)c1cc(-c2ccc(C(C)(C)C)cc2)nc2ccc(Br)cc12)CNC(=O)c1cc(-c2ccc(C(C)(C)C)cc2)nc2ccc(Br)cc12 | -13% | 1.49
O=c1[nH]c2cccc(N3CCN(Cc4cccc(-c5ccccc5)c4)CC3)c2o1 [BIFEPRUNOX] | 1% | -0.14
CN(C(=O)c1ccc(OC2CCN(S(=O)(=O)N(C)C)CC2)cc1)C(C1CC1)C1CC1 | -9% | 1.36
CCN(CC)C(N)=NCCOc1cccc(C)c1 | -5% | 0.51
NC(=O)[C@@H]1CC(C(=O)Nc2nccs2)=NN1c1ccccc1 | 7% | -1.25
CC(C)CN1CCCn2nc(CNC(=O)Nc3ccc(Cl)cc3)cc2C1 | -1% | 0.24
O=C(COc1ccc(Cl)cc1)NC[C@H](O)c1ccoc1 | -6% | 1
Cc1cc(Br)ccc1NC(=O)CCNC1CCOC1C (centres undefined) | -4% | 0.5
CC(CC1CCCCCN1C(=O)OC(C)(C)C)NCc1cccc(C(N)=O)c1 (centres undefined) | 1% | -0.11
O[C@@H](CN(Cc1ccccc1)c1ncccn1)c1ccco1 | -18% | 1.62
Cc1nccc(C(=O)Nc2ccc(N3CCc4sccc4C3)cc2)n1 | -16% | 1.99
CN(CCC1CCOCC1)C(=O)Cn1ccc2ccccc2c1=O | 17% | -2.19
C=C(C)C(NC(=O)NC1CCCc2cn[nH]c21)c1ccc(F)c(F)c1 (centres undefined) | -3% | 0.38
Cn1cncc1C(=O)N1CC(=O)N(CC(F)(F)F)C1 | -2% | 0.25
CC1CCN(CCNS(=O)(=O)c2ccc3ccccc3c2)CC1 | 1% | -0.17
O=C(C[C@H]1CCc2ccccc2C1)Nc1nncn1C1CC1 | -5% | 0.75
Cc1noc(C)c1CCCNS(=O)(=O)c1cc(Cl)cnc1N | -9% | 1.77
CC(=O)N1CCC(C(=O)N2C[C@H](Nc3ncccn3)[C@@H](C3CC3)C2)CC1 | 11% | -1.44
COc1cc2ccc1OCC(=O)N[C@@H](C)C(=O)N(C)CCCCN(C(=O)c1cc(Cl)cn1C)CCCNC2=O | -24% | 3.05

SMILES | % Inhibition | Z score
O=C(Nc1ccc(S(=O)(=O)N2CCOCC2)cc1)c1sc2ccccc2c1Cl | -16% | 2.24
CCCOC(=O)N1CCC[C@@]2(CCC(=O)N(Cc3cnc(C)cn3)C2)C1 | 6% | -0.75
COc1cccc(CC(=O)N[C@H](C)c2onc(-c3ccc(F)cc3)c2C(=O)O)c1 | -1% | 0.16
COc1ccc2c(c1)Oc1cc(C)ccc1N=C2N1CCCN(C(=O)Cc2ccccc2)CC1 | 4% | -0.52
CC1C=CC2C(=O)N(CC(F)(F)F)C(=O)C2C1C(=O)N1CCC(Cc2ccccc2)CC1 (centres undefined) | 38% | -4.26
CCOCc1nc(C)c(C(=O)N2CC3(CCC3)[C@@H]2C(C)C)s1 | 0% | -0.05
CCN1CC(=O)N[C@H]2CN(C(=O)CCCn3cccn3)CC[C@@H]2OCc2cccc(c2)Oc2cccc(c2)CC1=O | -8% | 1.47
CC[C@H]1C(=O)NCCN1Cc1ccc2c(c1)CN(C/C=C/c1ccccc1OC)CCO2 | -2% | 0.44
Cn1nncc1C(=O)Nc1ccc(Cl)cc1-c1ccc(Cl)cc1 | 11% | -1.52
C#CC(CC)(CC)NC(=O)Nc1ccc(OC)cc1 | 0% | 0.05
Cc1cc(-n2cc(C#N)c(=O)[nH]c2=O)ccc1N1CCCC1 | -10% | 1.62
CCCn1cc(NC(=O)CC(C)(C)CC(=O)OC)cn1 | -3% | 0.44
Cn1nccc1-c1ccc(-c2nc(C(C)(C)C)n[nH]2)cc1 | 3% | -0.43
Cc1cc2cc(C(=O)NS(=O)(=O)CC3(C#N)CCC3)oc2cc1C | 1% | -0.1
Cc1cc(=O)c(C(=O)N(C)Cc2cnn(C(C)C)c2)c[nH]1 | -15% | 2.14
CC1CC(C)N(C(=O)c2ccc3c(c2)COCO3)C1 (centres undefined) | 1% | -0.2
COc1ccc(S(=O)(=O)N2CC(N3C(=O)CCC3=O)C2)cc1C | 16% | -1.85
COC1(C(F)(F)F)CCN(c2ccc3nc(C)nn3n2)CC1 | 11% | -1.45
CCOc1ccccc1S(=O)(=O)NCC1(OCCO)CCCC1 | -9% | 1
COc1cc(-c2nc(CN3CCC[C@H]3c3nc4ccccc4s3)c(C)o2)ccc1F | 1% | -0.17
CC1CCS(=O)(=O)CCN1C(=O)NC1CCCc2nn(C)cc21 (centres undefined) | -5% | 0.71

SMILES | % Inhibition | Z score
CC(=O)c1cccc(S(=O)(=O)N2CCN(C(=O)c3cnn4ccccc34)CC2)c1 | 3% | -0.46
O=C(CN1CCO[C@H](c2ccc(Cl)cc2)C1)Nc1ccc(O)cc1 | -39% | 4.58
O=C(NCc1ccccc1)N1CCCN(c2nc3cc(Cl)ccc3n3cccc23)CC1 | 0% | 0.02
Cc1cccc(C)c1CN(CC(C)C)C(=O)c1cc(C(=O)O)nn1C | -8% | 1.28
CCOC(=O)[C@H]1CC[C@@H](C)N(S(=O)(=O)c2cnn(CC)c2)[C@H]1C | -5% | 0.48
COc1cccc2cc(C(=O)N3CCN(c4ccc(-c5ccco5)nn4)CC3)oc12 | -11% | 1.71
CN1C[C@H]2CC[C@@H](C1)N(Cc1ccc(-c3ccccc3C#N)o1)C2 | 6% | -0.89
Cc1ccc(CN2CCC(Oc3ccc4ncccc4c3)(C(=O)O)CC2)o1 | -4% | 0.53
COc1ccc(OC)c(-c2c(C3c4ccccc4C(=O)N3CC3CCCO3)c3ccccc3n2C)c1 (centres undefined) | 18% | -2.28
CCN(C(=O)c1cccc(S(=O)(=O)N2CCOCC2)c1)c1nc2c(C)cccc2s1 | 1% | -0.12
CS(=O)(=O)N1CCC(C(=O)Nc2cccc3ccccc23)CC1 | 9% | -1.18
O=C(NC1CCCC1)[C@H]1CC(=O)N(c2n[nH]c3cc(Br)ccc23)C1 | -2% | 0.3
COc1ccc(NC(=O)c2ccc3nn(CC(=O)Nc4cc(C)ccc4C)c(=O)n3c2)cc1 | -29% | 2.52
CN(C)c1ccc(/C=C/c2c(Cl)cnc3ccccc23)cc1 | -31% | 3.63
O=C(N1CCCC(CN2CCN(c3ccccn3)CC2)C1)C1(O)CCOC1 (centres undefined) | -9% | 1.21
CCCN(CCC)C(=O)C[C@H]1C(=O)NCCN1Cc1ccoc1 | -19% | 2.79
COc1cccc2c(N3CCN4C(=O)NC[C@H]4C3)nccc12 | -3% | 0.5
CN(CC(=O)NC1CC1)c1cccc(F)c1C#N | 0% | 0.03
O=C(c1ccc2[nH]cnc2c1)N1CCN(C(=O)c2cc3n(n2)CCCC3)CC1 | -10% | 1.51
O=C(COc1cccc(Cl)c1)NC[C@@H](c1ccccn1)N1CCOCC1 | 2% | -0.3
Cc1noc(C)c1Cc1ccc(C(=O)N(CCN2CCCC2)C2CCOCC2)o1 | -8% | 1.24

SMILES | % Inhibition | Z score
Cn1cc(CNC(CC2CCOC2)c2ccccc2)cn1 (centres undefined) | -16% | 1.41
CCOC(=O)N1CCN([C@H]2CCCN(C3CCN(c4ccc5c(c4)CCC5)CC3)C2)CC1 | -11% | 1.8
CO[C@@H](C)c1cccc(-c2n[nH]c(C(=O)N(C)C)n2)c1 | -4% | 0.82
CCC(CC)(OC)c1noc(Cc2ccsc2)n1 | 1% | -0.07
O=C(CCC(=O)N1Cc2ccccc2Oc2ncccc21)NC1CCCCC1 | 5% | -0.6
COc1ccc([C@H](C)NCc2nc(C)cc(C)n2)c(F)c1 | -9% | 1.67
CN(C)c1ccc(S(=O)(=O)Nc2ccc([C@H]3C[C@@H]3C(=O)O)cc2)cc1 | -6% | 0.8
O=C(Nc1ccccc1CCc1ccccn1)N[C@H]1CS(=O)(=O)C[C@@H]1O | -8% | 1.04
Oc1ccc(CN2CCO[C@H](c3ccc(Cl)cc3)C2)cc1Cl | 0% | 0.03
O=C(Cc1ccc(F)c(Cl)c1F)NCCN1CCC(O)CC1 | 9% | -0.82
COC(=O)c1cccc(C#Cc2cccc(NC(=O)NCc3cccnc3OC)c2)c1 | -6% | 1.23
Cc1nn(CCC(N)=O)c(C)c1-c1cccc(C(=O)NCc2cccs2)c1 | -11% | 1.18
Cc1cnc(-c2ccncc2)n1CCC1CCN(C(=O)C2CCCCC2)CC1 | 2% | -0.31
CC(C)(C)OC(=O)NCc1cccc(NCc2ccc(CO)o2)c1 | -3% | 0.36
CC(C)CNC(=O)c1coc(CN2CCN(Cc3cc(F)ccc3F)CC2)n1 | -12% | 1.61
O=C(Nc1nc(-c2cc(F)ccc2F)cs1)c1cnsn1 | -8% | 1.46
CN(CCN1C(=O)NC(C)(C)C1=O)C1CCCCCC1 | 1% | -0.19
CCOc1ccc(-c2ncnc(N3CCCCC3)c2N)cc1 | 3% | -0.36
CC(c1ccc(F)c(F)c1)N(C)C(=O)NCC1CCS(=O)(=O)C1 (centres undefined) | -4% | 0.58

From ChEMBL document CHEMBL4888484, “Replenishing the malaria drug discovery pipeline: Screening and hit evaluation of the MMV Hit Generation Library 1 (HGL1) against asexual blood stage Plasmodium falciparum ,using a nano luciferase reporter read-out” (2022)
